# Test results reported in paper PMC12136788.
# Some of the results follow.
# B1: chr1:66463027:66463028:+_ENSMUSG00000015222_ENSMUST00000114013|mus_mus|mus_mus_mus_hu_True|38_48 (ssRNA)
# RNA: GGGAGUUCUACAGUCCGACGAUCUUUUCUUUCAGGAGUGGAAAUUCUGCCUCUCCCGGUUUUAAAAGGCUUUUCUUUUCUAUGUUUCUCGAGAGACGGUCUCCGAGCUUCCUUUUCAGCUUUCUCCUCUUUAGGAAUAGUUUCCAACAGAGGAUUGAGCAUCA
# B2: chr3:148802587:148802588:-_ENSG00000071794_ENST00000310053|hu_hu|motif|central (ssRNA)
# RNA: GGGAGUUCUACAGUCCGACGAUCUCCAACCACAUGACCUCUCAAACUUCCAAAUAAAACGGAAUCUACUUCUUCAUCACGGGUUAGAAAGUCAUCUGGAGGGAUAACAUCUUGGAAUUCAAAACGUGGAAAGAAAGUUGGAUACAACAGAGGAUUGAGCAUCA
# B3: chr4:45007048:45007049:-_ENSMUSG00000049657_ENSMUST00000055028|mus_hu|FALSE|FALSE (ssRNA)
# RNA: GGGAGUUCUACAGUCCGACGAUCGUUCUGAUUUGCAGUAAAGUUAUUUCCUCUGCUCUUGUUAAGAAAAUUCGAAAUACUAAAAGUGGACUUAUGCUCUAGGUUAUUUGUGACUUCCAAAAUAUGGAUAUCACCUACCCUGUCCAACAGAGGAUUGAGCAUCA
# B4: chr11:77843920:77843921:+_ENSMUSG00000037791_ENSMUST00000049167|mus_mus|motif|central (ssRNA)
# RNA: GGGAGUUCUACAGUCCGACGAUCGUUUUUAUAUACAGAAUACAGGAAAGUUUCUGUCAAGUCUAAAACAUUACAAUUACGGUGUACAUUGGUUGUGGGGAAGAGGAAGUAUCUGGGGUGAGGAGGAAGAGAAGUGGUAAGAACCAACAGAGGAUUGAGCAUCA
# B5: chr1:21097501:21097502:-_ENSG00000127483_ENST00000312239|hu_mus|FALSE|FALSE (ssRNA)
# RNA: GGGAGUUCUACAGUCCGACGAUCCUCUCUCUUCAGCGCUUGCUUGAGCAGAUAGCCCCUUCUCUCCAGACCCAGAGACGGGUACUUAUGAAUGAUGUACUUUCGAAUCGCAACCACCGAGGCGCCAGUCUUCUGGAAGCAUGCCAACAGAGGAUUGAGCAUCA
# B6: chr8:104447970:104447971:+_ENSG00000164934_ENST00000297579|hu_hu|hu_hu_hu_mus_False|18_78 (ssRNA)
# RNA: GGGAGUUCUACAGUCCGACGAUCAUACACUUCCCUGCUUCGGCUCUUGUCCACAGGAAAGAUUCGAAUAGACUUAUCAAAGCUGGCAGACACAAAUUCCUUCCCAGUGGGAGAGUAAUCCACAUCAAGUACUGCAGACACGUGCAACAGAGGAUUGAGCAUCA
# B7: chr10:1063573:1063574:+_ENSG00000107937_ENST00000545048|hu_hu|FALSE|FALSE (ssRNA)
# RNA: GGGAGUUCUACAGUCCGACGAUCCUUUCUUCUGGAGGUUUAUUUUGGAUAAAAUAGUUGAAGACAGACUACAAUGAGACAUUGUAAAAUAAGACUAGAAAAUAAUUUAAGAGCGUAUUUUAAGCACGGGAUUCCGACACACUCCAACAGAGGAUUGAGCAUCA
# B8: chr14:31888013:31888014:+_ENSMUSG00000042323_ENSMUST00000112095|mus_mus|motif|central (ssRNA)
# RNA: GGGAGUUCUACAGUCCGACGAUCGCUGAGUGCUGGAGAAAGAAGGAUCUCUCCAUUUUUGCAGAGUUCAUCACGAAUUCGGAUAAAAAACUGCUGAAGUUCUACAGCAUCCUCAUAUAUUUCGGAAUCUGUCCGGUUCAUCCUCAACAGAGGAUUGAGCAUCA
# B9: chr4:134901438:134901439:-_ENSMUSG00000028809_ENSMUST00000134854|mus_mus|FALSE|FALSE (ssRNA)
# RNA: GGGAGUUCUACAGUCCGACGAUCCUUCCGACUCCCUACUGCAACUCAACCACCUUGAGUUUAAUGUUAUAUCAUUUAUCUAAAUUGCAAAAGACGAACAAGCAAUAAUGAGUACACAACCACAAAAAAAGAAAAGAUUGUUUACAACAGAGGAUUGAGCAUCA
# B10: chr7:149068622:149068623:-_ENSMUSG00000025139_ENSMUST00000001950|mus_hu|mus_mus_mus_hu_False|28_88 (ssRNA)
# RNA: GGGAGUUCUACAGUCCGACGAUCGUGAGGCCUCUGAGUGUGGCUUGUGCUCUGCAGUGGGUUAGAGUUGUUAAUAUCACGGAACAUACCAUCUAGAACGUUCCAGUCUGCCUGACUACCUUCAUUCCCAAUGGAGAAGAAAUCCAACAGAGGAUUGAGCAUCA
# B11: 7343084_7343204_354_5pUTR_ENSMUSG00000024968_ENSMUST00000066646|mouse|control|control (ssRNA)
# RNA: GGGAGUUCUACAGUCCGACGAUCCGGCCGGGGGCACGCUCGCUCCGUGCGCCCCUCGGGGCUGGUUCUCCCCCGGGGAGAGUCGGGGCGCGUUGCCCUCGGGGAGCCCCGGAGCCGCGCCGCGCGCCUGCCCACGCUGUUUGGCAACAGAGGAUUGAGCAUCA
# B12: chr2:66073698:66073699:-_ENSMUSG00000034848_ENSMUST00000102718|mus_hu|motif|central (ssRNA)
# RNA: GGGAGUUCUACAGUCCGACGAUCUUGCUGGAUUUCAUUUAAAAAUUCUAGCUGCUGAUCUGCAUCCUGUAAUUGCCCUUCGGUCAACUGACAUUGGAUAAAUCCAACUAGGGCAGACACACUAGUCUCAUCAAGUGUCAUGGCCAACAGAGGAUUGAGCAUCA
# B13: 121709820_121709940_1114_5pUTR_ENSMUSG00000042744_ENSMUST00000119892|mouse|control|control (ssRNA)
# RNA: GGGAGUUCUACAGUCCGACGAUCGUUUUCAGAGCUGGAGCCAGUGUUGCUGUCUGGUGCUGGCAGCAUGUCCUCAUAUCCCCAAGAUACUAUGUGUUUGCCCCCAAGCAAACAGGAUGGGGAUCCAGGUCCCCCUUCCAAAAGCAACAGAGGAUUGAGCAUCA
# B14: 72149530_72149750_466_3pUTR_ENSMUSG00000038535_ENSMUST00000098576|mouse|control|control (ssRNA)
# RNA: GGGAGUUCUACAGUCCGACGAUCUACUGGCAAGGCAGCCACAGGAUUUGAUGCUGAAUUCAGGCAGCGUUGACUUGUAGGCUUGAAUGAAGCAGUAAAACCUCGAUUGAGUAUACCAUUCUUUAUUCCUCUUGAAUGAGAGCUCAACAGAGGAUUGAGCAUCA
# Molecular target: T1, UNK ZnF1-3 (human, UniProt Q9C0B0 31-174)
# T1 sequence: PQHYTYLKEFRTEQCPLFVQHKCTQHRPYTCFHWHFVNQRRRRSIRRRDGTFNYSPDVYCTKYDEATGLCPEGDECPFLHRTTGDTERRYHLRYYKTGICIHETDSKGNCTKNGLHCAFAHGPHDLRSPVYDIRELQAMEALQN
# Assay: nsRBNS (natural sequence RNA bind-n-seq); RBNS binding buffer (assumed for nsRBNS): 25 mM Tris pH 7.5, 150 mM KCl, 3 mM MgCl2, 0.01% Triton X-100, 500 ug/ml BSA, 20 U/ml SUPERase-In, 4 C; UNK is unkempt and MSI1 is Musashi-1; names of the RNAs are library labels; protein concentration not given here; high values mean tight binding
row,Binder,binding signal [enrichment R]
1,B1,0.331
2,B2,0.991
3,B3,0.705
4,B4,1.9
5,B5,1.03
6,B6,0.958
7,B7,1.49
8,B8,1.04
9,B9,2.4
10,B10,0.651
11,B11,1.22
12,B12,0.732
13,B13,0.65
14,B14,1.01
